For one molecule, binding results are on record in publication PMC4490372, “Architecture of TFIIIC and its role in RNA polymerase III pre-initiation complex assembly” (Nature Communications, 2015).

In assay [1] the target is T1, GST-tagged τ131 (123–566) D468K (S. cerevisiae) (UniProt P33339).
T1 sequence: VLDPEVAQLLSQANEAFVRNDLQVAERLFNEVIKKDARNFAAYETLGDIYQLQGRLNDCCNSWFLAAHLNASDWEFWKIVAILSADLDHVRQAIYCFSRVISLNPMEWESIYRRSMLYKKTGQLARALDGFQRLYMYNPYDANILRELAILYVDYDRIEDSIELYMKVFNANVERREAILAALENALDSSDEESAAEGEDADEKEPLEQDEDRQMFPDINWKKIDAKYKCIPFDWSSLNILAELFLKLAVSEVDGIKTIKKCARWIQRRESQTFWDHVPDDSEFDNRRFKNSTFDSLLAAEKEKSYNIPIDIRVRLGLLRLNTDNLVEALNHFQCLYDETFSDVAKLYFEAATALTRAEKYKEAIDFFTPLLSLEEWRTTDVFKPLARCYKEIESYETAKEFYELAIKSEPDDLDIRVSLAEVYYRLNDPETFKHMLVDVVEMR
Description: pull-down; 15 μg GST-tagged τ131 on Glutathione Sepharose 4B; 300 nM τ138 or Bdp1, or 1 μM Brf1–TBP; 50 mM Tris pH 7.5, 150 mM NaCl, 2 mM DTT, 0.1% Tween20; 4 °C, 4 h; both purified.

The target in assay [2] is T2, GST-tagged τ131 (123–566), wild type (S. cerevisiae) (UniProt P33339).
T2 sequence: T1 sequence with K346D
Described as above.

Assay [3] addresses T3, GST-tagged τ131 (123–566) L469K (S. cerevisiae) (UniProt P33339).
T3 sequence: T1 sequence with K346D, L347K
The assay is described as above.

Assay [4] concerns the target T2, GST-tagged τ131 (123–566), wild type (S. cerevisiae). Description: pull-down; competition of τ138 and Bdp1 with the shorter TPR array of τ131; data not shown; both purified.

Numbering of substitutions follows the chain as printed. Results are given in words; binding and its absence hold for the method and conditions named. Some entries that bind do so weakly or less than the wild type. Where a sequence is shown, tags or fusion partners need not be part of it.

B1: τ138 (546–693), eWH-τIR (domain or fragment, S. cerevisiae, UniProt P34111 546-693, looked up)
chain: SARSLRSLQRQRAILKVMNTIGGVAYLREQFYESVSKYMGSTTTLDKKTVRGDVDLMVESEKLGARTEPVSGRKIIFLPTVGEDAIQRYILKEKDSKKATFTDVIHDTEIYFFDQTEKNRFHRGKKSVERIRKFQNRQKNAKIKASDD
notes: the cloning of this construct is not described; also called τ138 (eWH-τIR); central region of τ138; source: purified; expression of this construct not described
For B1, the binding result is reported as “no binding (tested: 300 nM τ138)” in assay [1], “binds” in assay [2], “no binding (tested: 300 nM τ138)” in assay [3] and “binds” in assay [4].
